Experimental data as given in PubChem BioAssay AID651820 (National Center for Advancing Translational Sciences (NCATS), 2012).
Out of some 340,000 compounds screened, about 12,000 (3.5%) were called active. Inconclusive means that the source gave no clear call. Such entries were picked first, then a sample of the others. Calls follow the shape of the dose curve; as a rule, active = well fitted inhibition curve with a large enough effect; inconclusive = small, poorly fitted or top-dose-only effect, or another doubt; inactive = no such curve, though single readings can be large or run the other way. Potencies of inconclusive entries are left out as doubtful fits.

Assay: qHTS Assay for Inhibitors of Hepatitis C Virus (HCV)
Details: Huh7.5.1 HCVcc-Cre (HCVcc is cell-culture hepatitis C virus) infection, luciferase reporter, 44 h; activity change, negative = inhibition: at 41.8 µM (top of the series) unless noted
Summary of the method: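 Compounds are dispensed onto cells plated 4 h earlier at 1,000 per well, with HCVcc-Cre virus (about 0.5 moi) added next. Following 44 h of culture, luminescent signal is measured for 15 sec after 15 min with substrate at room temperature.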
% is scaled to controls: 0 for no effect and ±100 for the full control effect; potency is read from the fitted curve at half-maximal effect; tags tell the direction and shape of the fitted curve.

SMILES | Potency | activity change, negative = inhibition
O=[N+]([O-])c1ccc(Nc2ccc3ccccc3c2)nc1 | inactive | –
Clc1ccc2c(SCC3CO3)c3ccccc3nc2c1 (stereo not given) | inconclusive [inhibitor, partial curve] | –
CC(=O)N1c2ccc(S(=O)(=O)NCCC(=O)Nc3ccc(OC(F)(F)F)cc3)cc2CC1C (stereo not given) | inconclusive [inhibitor, partial curve] | –
CCCCNC(=S)N(C)/N=C/c1ccc(OCc2ccc(C(=O)OC)cc2)c(OC)c1 | inconclusive [inhibitor, partial curve, poor fit] | –
Cc1cc(C(=O)NCCc2ccc(S(N)(=O)=O)cc2)no1 | inactive | –
O=C(Nc1nccs1)[C@@H]1CCCN1S(=O)(=O)c1ccc(Cl)cc1 | inactive | –
COc1cc(CN2CCN(Cc3cccc(OC)c3OC)CC2)cc(OC)c1 | inconclusive [inhibitor, full curve, poor fit] | –
CN1CCC(N2CCN(c3cccc(C(F)(F)F)c3)CC2)CC1 | inconclusive [inhibitor, single point] | –
O=C(O)c1ccc(S(=O)(=O)NCc2ccc3c(c2)OCO3)cc1 | inactive | –
Cc1cc(N2CCN(C)CC2)nc2ccc(NC(=S)NCCC(C)C)cc12 | inconclusive [inhibitor, partial curve, poor fit] | –
O=C(CNC1CCCCCC1)Nc1ccccc1N1CCCCC1 | inconclusive [inhibitor, single point] | –
CCN(CC)S(=O)(=O)c1cccc(C(=O)c2c(C)cc3ccccn23)c1 | inconclusive [inhibitor, partial curve] | –
COc1ccc2c(c1)c1ncn(Cc3ccco3)c(=O)c1n2C | active: 11.2 µM | –
CCN(CCNC(=O)C1CC(=O)N(CCc2ccccc2)C1)c1ccccc1 (stereo not given) | inconclusive [inhibitor, partial curve] | –
CCOc1ccc2nc(NC(=O)CCn3cccc3)sc2c1 | inactive | –
CCOC(=O)C1=C(N)n2c(s/c(=C\c3cccnc3)c2=O)=C(C(=O)OC)C1c1cccnc1 (stereo not given) | inconclusive [inhibitor, single point] | –
Cc1cnc(C(=O)NCC(=O)Nc2ccccc2Br)cn1 | inconclusive [inhibitor, single point] | –
COc1ccc(N2CCN(c3ncnc4scc(-c5ccccc5)c34)CC2)cc1 | inconclusive [inhibitor, single point] | –
Cc1cccc(NC(=O)CCCSc2nc3ccccc3[nH]2)c1 | inconclusive [inhibitor, single point] | –
CCOc1ccc2[nH]c(=O)c(CN(Cc3ccccc3OC)C(=O)c3ccccc3)cc2c1 | inconclusive [inhibitor, partial curve] | –
CC(Sc1nc2cc(Cl)ccc2s1)C(=O)Nc1cccc(S(=O)(=O)N2CCOCC2)c1 (stereo not given) | inconclusive [inhibitor, partial curve] | –
Cc1ccccc1OC(C)C(=O)N1CCC(Cc2ccccc2)CC1 (stereo not given) | inconclusive [inhibitor, single point] | –
O=C(NCC1CCCN(Cc2cccc(OCCO)c2)C1)c1ccc(F)cc1 (stereo not given) | inactive | –
CNS(=O)(=O)c1cccc(C(=O)OCc2csc(-c3ccccc3)n2)c1 | inconclusive [inhibitor, partial curve, poor fit] | –

SMILES | Potency | activity change, negative = inhibition
COc1ccc(C2c3c(ncn(Cc4ccco4)c3=N)Oc3ccc4ccccc4c32)cc1 (stereo not given) | inconclusive [inhibitor, single point] | –
CCOC(=O)[C@@H]1[C@H]2COc3ccc(Br)cc3[C@@H]2N2C(=O)N(c3cccc(F)c3)C(=O)[C@]12C | inactive | –
CCOC(=O)c1cc(C#N)c(SC(C)C(=O)NC2CCCCC2)nc1C (stereo not given) | inactive | –
C=CCn1c(Cc2cccs2)nnc1SC/C=C/c1ccccc1 | inconclusive [inhibitor, partial curve, poor fit] | –
CN1CCN(CC(=O)Nc2nc(-c3c[nH]c4ccccc34)cs2)CC1 | inconclusive [inhibitor, single point] | –
COc1cccc(C(C(=O)NCC2CCCO2)N(C(=O)Cn2nnc3ccccc32)c2ccc(NC(C)=O)cc2)c1 (stereo not given) | inactive | –
CCc1c(C2(O)CCCCC2)[nH]c2ccc(C#N)cc12 | inactive | –
Cc1cccc(OCCC(=O)Nc2ccc(C)c(S(=O)(=O)N3CCCCC3)c2)c1 | active: 3.16 µM | –
CN(CCOc1ccccc1)C(=O)c1cc(S(=O)(=O)N2CCCCC2)ccc1Cl | inconclusive [inhibitor, single point] | –
CN(C)c1ccc(C(O)c2cc3ccccc3s2)cc1 (stereo not given) | inactive | –
COC(=O)c1ccc(Cn2nnc3ccccc32)cc1 | inconclusive [inhibitor, full curve, poor fit] | –
COc1ccccc1N1CCN(CCCCCCOc2ccc(F)cc2)CC1 | inconclusive [inhibitor, full curve] | –
COc1cccc(NC(=O)CN(C)C(=O)Cn2[nH]c(=O)c3ccccc3c2=O)c1 | inconclusive [inhibitor, full curve, poor fit] | –
Cc1nnc(NC(=O)c2ccc(N3CCCC3=O)cc2)s1 | inconclusive [inhibitor, full curve, poor fit] | –
O=C1CC[C@@H](C(=O)O)N1 | inactive | –
COC(=O)c1ccc(NC(=O)CO/N=C2\CCCc3nonc32)cc1 | inconclusive [inhibitor, partial curve] | –
COc1cccc(CN2C(=O)c3cccc(N)c3C2=O)c1 | inactive | –
O=C(CSc1nnc2ccccn12)NC(=O)c1cccc([N+](=O)[O-])c1 | inactive | –
CCOc1ccc2nc(N3CCCC(C(=O)NCCCN4CCOCC4)C3)sc2c1 (stereo not given) | inactive | –
NS(=O)(=O)c1cccnc1Nc1cccc(C(F)(F)F)c1 | inconclusive [inhibitor, partial curve, poor fit] | –
Cc1cccn2c(=O)nc(SCC(=O)NCc3ccccc3Cl)nc12 | – | inactive: 2.77% [at 8.37 µM]
COc1ccc(NC(C)=O)cc1NC(C)C(=O)Nc1cc(C(F)(F)F)ccc1N1CCOCC1 (stereo not given) | inconclusive [inhibitor, single point] | –
CCc1noc(C)c1C(=O)Nc1ncc(C)s1 | inactive | –
N#CC1=C2SC=C(c3ccc(Br)cc3)N2CCCC1=O | active: 11.2 µM | –

SMILES | Potency | activity change, negative = inhibition
NCCCn1c(C(=O)c2cc(Cl)c(N)c(Cl)c2)c2ccccc2[n+]1[O-] | inconclusive [inhibitor, single point] | –
CC(=O)c1cn(Cc2ccc(F)cc2)c2ccccc12 | inconclusive [inhibitor, single point] | –
Cc1[nH]nc(-c2ccc(O)cc2O)c1-c1ccc(Cl)cc1 | inconclusive [inhibitor, partial curve] | –
COc1ccc2c(c1)/C(=C/c1cnc[nH]1)C(=O)N2 | inconclusive [inhibitor, partial curve] | –
Cc1ccc(CN2C(=O)C(CC(C)C)Nc3ncnc(N4CCOCC4)c32)cc1 (stereo not given) | inactive | –
COc1ccc(C(=O)NC2CCCc3c2cnn3-c2cc(F)cc(F)c2)c(OC)c1OC (stereo not given) | inconclusive [inhibitor, partial curve] | –
COc1cccc2[nH]c(C(=O)NCCc3ccccc3)cc12 | inconclusive [inhibitor, single point] | –
CCC(C)(C)NCC(=O)Nc1ccc(OC(F)(F)F)cc1 | inconclusive [inhibitor, partial curve, poor fit] | –
COC(=O)c1c(NC(=O)COC(=O)CC(NC(C)=O)c2ccccc2)sc(C)c1C (stereo not given) | inconclusive [inhibitor, partial curve, poor fit] | –
CCN1CCN(C(=O)CS(=O)(=O)Cc2nc(-c3ccc(C)cc3)oc2C)CC1 | inconclusive [inhibitor, single point] | –
CC(C)N=c1scc(-c2cccs2)n1/N=C/c1ccc(O)c(O)c1O | inactive | –
CCC(=O)Nc1cccc(NC(=S)NC(=O)c2ccc(Cl)cc2Cl)c1 | inconclusive [inhibitor, partial curve] | –
CCc1cccc2c1Sc1ccccc1CC2N1CCNCC1 (stereo not given) | inconclusive [inhibitor, single point] | –
c1ccc(C(c2ccccc2)N2CCN(c3nc4ccccc4n4cnnc34)CC2)cc1 | inconclusive [inhibitor, single point] | –
O=c1oc2ccccc2c2c1SC(C(F)(F)F)C2 (stereo not given) | inconclusive [inhibitor, single point] | –
COc1cccc(-c2nc(CS(=O)(=O)CC(=O)Nc3cccc(C(C)=O)c3)c(C)o2)c1 | inconclusive [inhibitor, partial curve] | –
Cc1cc(C2=CC(=O)C[C@H](c3ccc4c(c3)OCO4)C2)ccc1F | inactive | –
CCOC(=O)c1cc(-c2ccccc2)sc1NC(=O)CSc1nncs1 | inconclusive [inhibitor, single point] | –
COc1ccccc1-c1cn[nH]c1-c1ccc(OCc2ccccc2F)cc1O | inactive | –
O=C1C2C3C=CC(c4ccccc4)(C2C(=O)N1c1cccc(Cl)c1)C1C(=O)N(c2cccc(Cl)c2)C(=O)C31 (stereo not given) | active: 10 µM | –
CCOc1ccc(OCc2ccc(C(=O)N(CC)CC)cc2)cc1 | inconclusive [inhibitor, single point] | –
CC(=O)N1CCc2cc(S(=O)(=O)NCCC3=CCCCC3)ccc21 | inconclusive [inhibitor, full curve] | –
